This note sets out measurements from PMC4242493.

This is one part of the list. The list includes weakly bound sequences.

The experiment deals with MaxL homodimer (UniProt P61244). Put plainly: universal protein-binding microarray (PBM). The note with it: PBS-based mixture, 10 nM His-tagged protein dimer, 2% milk, 200 ng/uL BSA, 50 ng/uL salmon testes DNA, 0.02% TX-100; detection with Alexa 488 anti-His …; high values mean tight binding; most listed sequences are background and not binding sites; double strand, one strand shown.
UniProt P61244, sequence (P61244 whole entry): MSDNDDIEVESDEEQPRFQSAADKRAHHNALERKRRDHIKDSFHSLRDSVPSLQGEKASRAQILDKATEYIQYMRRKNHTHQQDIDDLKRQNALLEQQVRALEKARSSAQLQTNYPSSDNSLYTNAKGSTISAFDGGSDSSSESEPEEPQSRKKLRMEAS
As to CGGCCATC, the binding signal (normalized occupancy) was found to be 0.0731. As to CCGCCCCG, the binding signal (normalized occupancy) stood at 0.0752. The value for GCCGGTGA was 0.0763; that for AGGCGACA was 0.0722. The value for GGAACATA was 0.0796; that for AATCCACC was 0.079; that for ATTATTCC was 0.0793. The value for AAGATCCA was 0.0755; that for AGACATTG was 0.0768; that for ATGGTCAC was 0.0895.

As to ATGCTTTA, the binding signal (normalized occupancy) stood at 0.0791.

As to CGTGATCA, the binding signal (normalized occupancy) was found to be 0.0962.

Consider GACCAAGC, for which the binding signal (normalized occupancy) came out at 0.0685. In the case of GTAAACGA, the binding signal (normalized occupancy) was 0.0724. The value for CTAAATGA was 0.0758; that for AGTAAGCA was 0.0767. With CCACGACG, the binding signal (normalized occupancy) was found to be 0.0811. The value for AGGTAACG was 0.0775; that for GGGAAACC was 0.076.

For the sequence ACTTCAAC, the binding signal (normalized occupancy) is 0.0813.

As to GATCTGGA, the binding signal (normalized occupancy) came out at 0.0749. The value for ACCAATGG was 0.0719; that for CAACTCCA was 0.0751. The figure for AAGATGAG is 0.0784; for CCGCACAC it is 0.0862; for GTGCATCA it is 0.0868. The figure for AGCCTACC is 0.0726; for AGAATAAT it is 0.0792.

In the case of CAAAGCAC, the binding signal (normalized occupancy) is 0.0759.

In the case of ACAGTTAA, the binding signal (normalized occupancy) came to 0.0744.

With AATTCTAG, the binding signal (normalized occupancy) was found to be 0.0761.

Turning to ACTAGCTG, the binding signal (normalized occupancy) was determined as 0.0709. In the case of AGCGATGG, the binding signal (normalized occupancy) came to 0.0684. The figure for GTCAGCAC is 0.0806; for CCTCGACG it is 0.071; for AGTCGATC it is 0.074. The value for GCATCTCA was 0.0766.

Consider TGCTCCAA, for which the binding signal (normalized occupancy) is 0.0769.

With GCCGTCCA, the binding signal (normalized occupancy) was found to be 0.0723. The figure for CACCGTCA is 0.0755; for AGCGCGGG it is 0.0733; for CCCTGCAC it is 0.0795. The value for AGCACTGG was 0.0724; that for ATCCCTCA was 0.0759. The figure for ATCTTAAC is 0.0765; for ACTATTAC it is 0.0758; for AAACTGTG it is 0.0711. For the sequence GCTATCCA, the binding signal (normalized occupancy) stood at 0.0767.

For AGGATCCT, the binding signal (normalized occupancy) is 0.0763. On to CATTTTAC, for which the binding signal (normalized occupancy) was determined as 0.0853.

On to CCCATAAG, for which the binding signal (normalized occupancy) amounted to 0.0856. The figure for GACCGGAA is 0.07; for CTGCCAAC it is 0.0738; for AGCTTCCA it is 0.0684. Regarding ACGTAGTA, the binding signal (normalized occupancy) worked out at 0.0731. The figure for TACGCGCA is 0.0698. The value for GAACATAC was 0.0829.

On to ACGAGTAC, for which the binding signal (normalized occupancy) worked out at 0.0776. GGAACAAA: the binding signal (normalized occupancy) was 0.0751. The figure for AGCACGTC is 0.081; for CACTCAGA it is 0.0715. The figure for GAATTTCC is 0.0774. The figure for ACGTCCCC is 0.0762. Take CGCCAATC: the binding signal (normalized occupancy) stood at 0.0773. As for AATGACAC, the binding signal (normalized occupancy) came to 0.0851. The value for ACTTTTAG was 0.0748; that for GACAGGCC was 0.0674; that for GCCCCGAA was 0.0675. As for TATTTCGA, the binding signal (normalized occupancy) came out at 0.0728. The figure for GAGCTCAC is 0.0749; for CGAGCAGA it is 0.0731; for CGCGCGCA it is 0.075.

As for CTATGCCC, the binding signal (normalized occupancy) worked out at 0.0777. The value for GCTCGGCC was 0.0691; that for AATGCCCT was 0.0732; that for CCACCGGA was 0.0726. The value for ACACGACA was 0.0868; that for GGTTCTTA was 0.0765; that for GATCCTGC was 0.0757. The figure for ATGAGTTG is 0.0815; for TCTACAAA it is 0.0761.

As to ACGCTGAC, the binding signal (normalized occupancy) came to 0.0735.

TGATTACA: the binding signal (normalized occupancy) turned out to be 0.0866.

ACCTCGCC: the binding signal (normalized occupancy) turned out to be 0.0753. The figure for ACGCTACA is 0.0851; for CTAGAGGA it is 0.0698; for AAGTTCAG it is 0.0751. The value for AGCTTGCG was 0.0673; that for CCTTAAGA was 0.0718. The figure for CGGTCTAG is 0.0714.

Consider CATTATCG, for which the binding signal (normalized occupancy) stood at 0.0801. The value for AGACCATA was 0.0835; that for ATCGCGTG was 0.127; that for GAATACGC was 0.0755.

With GTCGCAAA, the binding signal (normalized occupancy) was 0.0719. The figure for GACGCAAC is 0.0699; for CATAAGTC it is 0.0755; for CGGTACAG it is 0.076. The value for CATCGCAC was 0.0759; that for CGTACTAA was 0.0739; that for TGAGGACA was 0.0814. As for AGCTTCAC, the binding signal (normalized occupancy) was found to be 0.0698. The figure for GAACTAAC is 0.0734; for TAATTAAA it is 0.0737; for CACAGGAG it is 0.0742. The value for GCAGGCTA was 0.0693. The figure for CTACGTCC is 0.0761; for CCCATGGG it is 0.0962; for AGGTTGTA it is 0.0784. On to GTGTGGGA, for which the binding signal (normalized occupancy) turned out to be 0.0899. The value for GACCCTAA was 0.0767. For the sequence CTACACCC, the binding signal (normalized occupancy) amounted to 0.0821. The figure for AACGCGTG is 0.123. The value for CTCTCACC was 0.0788. Take AGGTACGC: the binding signal (normalized occupancy) is 0.0714. The value for CTCAAATA was 0.0761; that for GAACACCC was 0.0745; that for AGCACGCT was 0.104. The value for GTAGCATA was 0.0838; that for ACAATTAA was 0.0764. The figure for CATTGGGC is 0.0743; for CCGAGAAG it is 0.0697; for CTAGGCGC it is 0.0714.

Regarding GATCAGCA, the binding signal (normalized occupancy) stood at 0.0754. For GAGTGTTA, the binding signal (normalized occupancy) was 0.0743. The figure for GATCTTAA is 0.0825; for ATGTGAGA it is 0.0969; for CGAGTCCC it is 0.0698. The value for ACGACCGG was 0.0708; that for AAAGGGTG was 0.0758. The figure for ACTCGCGC is 0.0737; for AGCTTTTA it is 0.0712.

As for GCGCACCC, the binding signal (normalized occupancy) stood at 0.0755. The figure for CGCTATTC is 0.0779; for TGGGTTAA it is 0.0771; for AACTCGAC it is 0.0723. The value for CCCGCCCC was 0.0823; that for AGTGAGAT was 0.0784. The figure for AAGTGCGG is 0.072. Consider ATACCTTA, for which the binding signal (normalized occupancy) was 0.0767. The value for AGGACCCA was 0.0706. The figure for CGTGTAAG is 0.0872. The value for AATGATGT was 0.083; that for ATGCGTCA was 0.0864.

As for GCCATTCA, the binding signal (normalized occupancy) stood at 0.0744. The figure for CCAAGGAC is 0.0696. CAAGGGAC: the binding signal (normalized occupancy) worked out at 0.0675.

Regarding CGCACTAA, the binding signal (normalized occupancy) was found to be 0.0689. The figure for CCGTTAGG is 0.0694. In the case of CTGGGCGA, the binding signal (normalized occupancy) stood at 0.0713.

On to AATGTGAT, for which the binding signal (normalized occupancy) worked out at 0.101.

Regarding GACTCTGA, the binding signal (normalized occupancy) was 0.0713. The value for CGTCCCTC was 0.0698; that for ACTCACTC was 0.0763. The figure for AAAAGAAT is 0.0743. The figure for ACGGCCAA is 0.0702; for GCTGTCTA it is 0.0732; for CTTCGGTC it is 0.0659.

On to GGGGAATA, for which the binding signal (normalized occupancy) amounted to 0.0817. The value for ACTAGGTG was 0.0768. The value for AGGGACAG was 0.0738; that for ACAAACAA was 0.0739.

On to AGACTAAA, for which the binding signal (normalized occupancy) is 0.071. The figure for ATCTTAAT is 0.0786. For the sequence ACGAACCA, the binding signal (normalized occupancy) was 0.0719. The value for CTGTACAG was 0.0706; that for ACCGCGCA was 0.0785; that for ACCACAGC was 0.0746.

As for ACCCCCCG, the binding signal (normalized occupancy) was 0.0817. The value for ACCCGACG was 0.0712; that for ATTTGTCA was 0.0789.

For the sequence ACACAAAA, the binding signal (normalized occupancy) came to 0.0728.
